Measurements from PubChem BioAssay (NCATS).
This list was built around the results that the source calls inconclusive (neither active nor inactive); the mix of calls is not that of the screen. A potency beside an inconclusive call is a rough fit, not a confirmed value. Activity calls are given as the source filed them. Calls come from the whole dose curve; as a rule, active = well fitted curve in the direction sought with a large enough effect; inconclusive = small, poorly fitted or top-dose-only effect, or another doubt; inactive = no such curve, though single readings can be large; an effect the other way counts as inactive or inconclusive.

Tests used:
[1] = biological target: Rap guanine nucleotide exchange factor 3 (Homo sapiens) (UniProt O95398); experiment: Confirmatory qHTS for antagonist of cAMP-regulated guanine nucleotide exchange factor 3 (EPAC1) (AID 1645880); conditions: EPAC1 Rap1B-BODIPY-GDP exchange, fluorescence; activity, negative = inhibition: at 115 µM (top of the series); note: nearly all actives have a fitted effect of over 55% in size
UniProt O95398, sequence (O95398 whole entry, looked up): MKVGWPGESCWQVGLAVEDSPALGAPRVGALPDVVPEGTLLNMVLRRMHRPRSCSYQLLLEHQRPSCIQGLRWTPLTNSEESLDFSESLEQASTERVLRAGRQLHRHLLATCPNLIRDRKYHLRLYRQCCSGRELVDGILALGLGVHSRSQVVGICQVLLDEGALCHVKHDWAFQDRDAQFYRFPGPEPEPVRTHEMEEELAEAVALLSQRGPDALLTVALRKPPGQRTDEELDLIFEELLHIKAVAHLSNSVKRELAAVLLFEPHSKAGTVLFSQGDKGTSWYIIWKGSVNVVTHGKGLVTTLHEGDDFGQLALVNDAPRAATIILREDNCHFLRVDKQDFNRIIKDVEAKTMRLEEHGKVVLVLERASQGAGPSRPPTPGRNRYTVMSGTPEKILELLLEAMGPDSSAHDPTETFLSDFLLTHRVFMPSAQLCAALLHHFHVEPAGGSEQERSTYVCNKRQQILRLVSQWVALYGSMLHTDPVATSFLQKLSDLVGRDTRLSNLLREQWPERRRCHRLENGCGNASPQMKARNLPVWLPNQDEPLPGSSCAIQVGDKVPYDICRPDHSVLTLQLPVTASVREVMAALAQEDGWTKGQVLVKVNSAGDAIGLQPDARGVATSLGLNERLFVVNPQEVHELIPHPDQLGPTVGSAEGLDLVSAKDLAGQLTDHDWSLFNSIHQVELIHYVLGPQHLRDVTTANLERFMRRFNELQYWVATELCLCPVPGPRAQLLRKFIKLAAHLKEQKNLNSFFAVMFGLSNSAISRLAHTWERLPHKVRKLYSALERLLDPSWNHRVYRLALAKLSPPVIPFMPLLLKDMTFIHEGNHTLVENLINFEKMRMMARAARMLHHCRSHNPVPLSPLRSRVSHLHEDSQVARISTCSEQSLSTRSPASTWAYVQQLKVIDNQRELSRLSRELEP
In short: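 Nucleotide exchange uses 100 nM EPAC1, 250 nM RAP1B-BODIPY-GDP and 50 uM GDP, with compounds in a concentration-titration series. After 5 min at room temperature, fluorescence (480 nm ex/540 nm em) is read every 5 min for 30 min. Data are normalized to control ATA and DMSO.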

[2] = biological target: Rap guanine nucleotide exchange factor 4 (Homo sapiens) (UniProt Q8WZA2); experiment: Confirmatory qHTS for agonist of cAMP-regulated guanine nucleotide exchange factor 4 (EPAC2) (AID 1645884); conditions: EPAC2 GEF activity, Rap1B-BODIPY-GDP fluorescence; activation: at 154 µM (top of the series), percent relative to cAMP agonist control;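 note: nucleotide exchange releases bodipy-GDP from Rap1 and this lowers its fluorescence; nearly all actives have a fitted effect of over 65% in size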; for activation: % is set by controls: 0 for no effect and ±100 for the full control effect
UniProt Q8WZA2, sequence (Q8WZA2 whole entry, looked up): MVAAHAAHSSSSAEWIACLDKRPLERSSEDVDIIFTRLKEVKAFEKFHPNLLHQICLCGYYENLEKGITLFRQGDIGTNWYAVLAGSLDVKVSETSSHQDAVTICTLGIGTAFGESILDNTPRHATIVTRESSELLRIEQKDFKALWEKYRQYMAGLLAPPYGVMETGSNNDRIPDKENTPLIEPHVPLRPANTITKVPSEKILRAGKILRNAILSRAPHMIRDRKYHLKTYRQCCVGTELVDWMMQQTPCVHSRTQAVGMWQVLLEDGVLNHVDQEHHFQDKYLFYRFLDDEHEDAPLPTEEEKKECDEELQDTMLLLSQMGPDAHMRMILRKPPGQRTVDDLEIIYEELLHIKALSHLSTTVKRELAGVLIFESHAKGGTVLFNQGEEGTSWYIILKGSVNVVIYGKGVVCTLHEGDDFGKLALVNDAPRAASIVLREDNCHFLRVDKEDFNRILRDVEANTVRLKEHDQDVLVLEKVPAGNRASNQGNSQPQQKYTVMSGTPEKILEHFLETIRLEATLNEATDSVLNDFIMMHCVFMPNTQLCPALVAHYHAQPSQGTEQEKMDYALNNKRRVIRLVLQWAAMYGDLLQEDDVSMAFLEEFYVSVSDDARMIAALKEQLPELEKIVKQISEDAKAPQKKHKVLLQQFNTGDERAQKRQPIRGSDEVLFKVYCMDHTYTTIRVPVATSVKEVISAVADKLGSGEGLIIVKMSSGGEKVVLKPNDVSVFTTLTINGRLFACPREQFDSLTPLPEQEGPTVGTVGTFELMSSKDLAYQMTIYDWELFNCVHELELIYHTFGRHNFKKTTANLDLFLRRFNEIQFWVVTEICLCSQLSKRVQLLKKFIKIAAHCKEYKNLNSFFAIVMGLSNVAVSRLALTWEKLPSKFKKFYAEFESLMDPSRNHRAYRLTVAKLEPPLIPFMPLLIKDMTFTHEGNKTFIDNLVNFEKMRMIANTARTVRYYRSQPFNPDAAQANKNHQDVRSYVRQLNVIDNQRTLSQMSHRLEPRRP

[3] = biological target: Rap guanine nucleotide exchange factor 4 (Homo sapiens) (UniProt Q8WZA2); experiment: Confirmatory qHTS for antagonist of cAMP-regulated guanine nucleotide exchange factor 4 (EPAC2) (AID 1645885); conditions: activity change, negative = inhibition: at 12.7 µM (top of the series) unless noted; note: nearly all actives have a fitted effect of over 25% in size; for activity change, negative = inhibition: % is set by controls: 0 for no effect and ±100 for the full control effect
[4] = biological target: Rap guanine nucleotide exchange factor 3 (Homo sapiens) (UniProt O95398); experiment: Counterscreen qHTS for agonist of cAMP-regulated guanine nucleotide exchange factor 3 (EPAC1) (AID 1645889); conditions: EPAC1 Rap1B-BODIPY-GDP exchange, fluorescence; activation: at 154 µM (top of the series) unless noted; note: nearly all actives have a fitted effect of over 40% in size; for activation: % of control where 0% means no effect
In short: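 Rap1B-BODIPY-GDP 250 nM + GDP 50 uM; cpds 7-pt, final 9.74 nM–152 uM (activator mode) or from 7.32 nM upwards (inhibitor mode); RT; FI 480/540 nm at 5 and 30 min, then ± cAMP, reread.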
Potency is the fitted concentration of half-maximal effect; tags give direction and shape of the fitted curve.

SMILES | Potency [1] | Potency [2] | Potency [3] | Potency [4] | activation [4] | activation [2]
Cc1onc(-c2ccccc2Cl)c1C(=O)OCc1cnc(Cl)s1 | inconclusive: 19 µM [inhibitor, partial curve] | inconclusive: 89.1 µM [activator, partial curve, poor fit] | inconclusive: 19 µM [inhibitor, full curve] | inconclusive: 50.1 µM [activator, partial curve] |  | 
Cc1ccc2sc(N(CCCN(C)C)C(=O)c3nc4ccccc4s3)nc2c1C | inconclusive: 84.9 µM [inhibitor, single point] | inconclusive: 112 µM [activator, single point] | inconclusive: 95.3 µM [inhibitor, partial curve, poor fit] |  | inconclusive: 35% [activator] | 
CC(=O)NC(c1ccccc1)c1c(O)ccc2ccccc12 (stereo not drawn) | inconclusive: 44.7 µM [inhibitor, partial curve, poor fit] |  | inconclusive: 6.01 µM [inhibitor, partial curve, poor fit] |  | inconclusive: 54.2% [activator] [at 30.8 µM] | inactive: 2.11% [at 17.1 µM, percent relative to cAMP agonist control]
COC1=NC(=C(c2ccccc2)c2ccccc2)OC1=O | active: 19 µM | inactive | active: 47.8 µM | inconclusive: 39.8 µM [activator, partial curve, poor fit] |  | 
COc1ccc(C(C#N)N2CCC(c3ccccc3)=N2)cc1 (stereo not drawn) | inconclusive: 95.3 µM [inhibitor, partial curve, poor fit] | inactive | active: 7.57 µM | inactive |  | 
Cc1nc(NC(=O)c2c(-c3ccccc3)c(-c3ccccc3)nn(C)c2=O)sc1C | inconclusive: 95.3 µM [inhibitor, partial curve, poor fit] | inconclusive: 50.1 µM [activator, single point] | inactive | inactive |  | 
O=C(Nc1ccc(F)cc1)c1cccc(N2C(=O)C3C4C=CC(C5CC45)C3C2=O)c1 (stereo not drawn) | inconclusive: 0.849 µM [inhibitor, partial curve, poor fit] | inconclusive: 35.5 µM [activator, single point] | inconclusive: 95.3 µM [inhibitor, single point] | inconclusive: 22.4 µM [activator, partial curve, poor fit] |  | 
